Laboratory results: paper PMC11079024, “Identification of a family of species-selective complex I inhibitors as potential anthelmintics” (Nature Communications, 2024)

Tested on: L1 wild-type C. elegans (N2)
Test: microbe, parasite or virus in culture
Settings: Caenorhabditis elegans; for viability at 500 µM: read-out: C. elegans Wild type development/viability, Dose 500 µM; for viability at 1000 µM: read-out: C. elegans Wild type development/viability, Dose 1000 µM
[1] = read-out: C. elegans Wt viability LC50
[2] = read-out: C. elegans Wt viability log10 LC50 (converted)
[3] = read-out: C. elegans (Wild type) Development & Viability Assay LC50
[4] = read-out: C. elegans Wild type development/viability, Dose 1 µM
[5] = read-out: C. elegans Wild type development/viability, Dose 2 µM
[6] = read-out: C. elegans Wild type development/viability, Dose 3.9 µM
[7] = read-out: C. elegans Wild type development/viability, Dose 15.6 µM
[8] = read-out: C. elegans Wild type development/viability, Dose 31.3 µM
[9] = read-out: C. elegans Wild type development/viability, Dose 62.5 µM
[10] = read-out: C. elegans Wild type development/viability, Dose 125 µM
[11] = read-out: C. elegans Wild type development/viability, Dose 250 µM
[12] = read-out: C. elegans Wild type development/viability

SMILES | LC50 [2] | LC50 [3] | viability at 1 µM [4] | viability at 2 µM [5] | viability at 3.9 µM [6] | viability at 15.6 µM [7] | viability at 31.3 µM [8] | viability at 62.5 µM [9] | viability at 125 µM [10] | viability at 250 µM [11] | viability at 500 µM | viability at 1000 µM | further results
CCCSc1ccc2nc(NC(=O)OC)[nH]c2c1 [Albendazole] | 52.6 µM |  |  |  |  |  |  |  |  |  |  |  | LC50 [1]: 52.6 µM
Cc1nc2ccccc2n1Cc1ccc(C(C)(C)C)cc1 [Compound 5521938] | 753 µM | 754 µM |  |  |  |  |  |  |  |  |  |  | 
Brc1ccc(Cn2cnc3ccccc32)cc1 [Compound 5542661] | 44.7 µM | 44.6 µM |  |  |  |  |  |  |  |  |  |  | 
Cc1nc2ccccc2n1CCOc1ccccc1 [Compound 5550112] | > 500 µM | > 1000 µM | 98.4% | 99.5% | 97.2% | 100% | 94.7% | 97.5% | 100% | 90.5% | 100% | 93.3% | LC50 [1]: > 500 µM
Cc1nc2ccccc2n1CCOc1ccccc1Cl [Compound 5561642] | 545 µM | 544 µM | 99.4% | 95.3% | 99.7% | 97.1% | 92.3% | 100% | 100% | 79.9% | 30% | 46.4% | 
Cc1nc2ccccc2n1Cc1ccc(Br)cc1 [Compound 5567167] | 18.9 µM | 18.9 µM |  |  |  |  |  |  |  |  |  |  | 
Clc1ccc(Cn2cnc3ccccc32)cc1Cl [Compound 5571325] | 66.5 µM | 66.5 µM | 98.5% | 100% | 94.1% | 100% | 92.2% | 37.5% | 2.1% |  |  |  | 
Cc1ccc(Cn2c(C)nc3ccccc32)cc1 [Compound 5651984] | 119 µM | 119 µM |  |  |  |  |  |  |  |  |  |  | 
Nc1nc2ccccc2n1Cc1ccc(Cl)cc1 [Compound 5652765] | 88.1 µM | 88.2 µM | 100% | 99.7% | 98.8% | 99.4% | 81.3% | 85.7% | 16.2% | 5.6% | 5.1% |  | 
Cc1nc2ccccc2n1Cc1ccc(Cl)c(Cl)c1 [Compound 5655567] | 82.6 µM | 82.7 µM | 95.1% | 94.9% | 94.2% | 100% | 100% | 91.2% | 3% | 9.3% |  |  | 
c1ccc2[nH]c(CSc3nc4ccccc4o3)nc2c1 [Compound 5668941] | 144 µM | 144 µM |  |  |  |  |  |  |  |  |  |  | 
Cc1ccc(OCCn2cnc3ccccc32)cc1 [Compound 5671538] | > 500 µM | > 1000 µM |  |  |  | 100% | 100% | 100% | 100% | 100% | 100% | 100% | LC50 [1]: > 500 µM
Nc1nc2ccccc2n1CCOc1ccc(Br)cc1 [Compound 5842535] | 39.7 µM | 39.7 µM | 98.7% | 100% | 100% | 100% | 84.1% | 3.9% | 9.2% |  |  |  | 
Cc1ccc(C(C)C)c(OCC(O)Cn2cnc3ccccc32)c1 (stereo not drawn) [Compound 6093301] | 366 µM | 365 µM | 100% | 99.3% | 99.4% | 100% | 100% | 100% |  | 94.7% | 48.5% | 41.9% | viability at 125 µM [12]: 97.2%
Cc1cccc(OCCn2c(C)nc3ccccc32)c1 [Compound 6285199] | > 500 µM | > 1000 µM |  |  |  |  |  |  | 100% |  |  |  | viability at 1 µM [12]: 99.9%; viability at 2 µM [12]: 91.6%; viability at 3.9 µM [12]: 97.6%; viability at 15.6 µM [12]: 95.5%; viability at 31.3 µM [12]: 93.8%; viability at 62.5 µM [12]: 97.6%; viability at 250 µM [12]: 64.8%; LC50 [1]: > 500 µM
Cc1ccc(Cn2c(C(C)C)nc3ccccc32)cc1 [Compound 6586153] | 396 µM | 397 µM |  |  |  |  |  |  |  |  |  |  | 
Cc1nc2ccccc2n1Cc1ccccc1Cl [Compound 6707368] | 140 µM | 140 µM |  |  |  |  |  |  |  |  |  |  | 

SMILES | LC50 [2] | LC50 [3] | viability at 1 µM [4] | viability at 2 µM [5] | viability at 3.9 µM [6] | viability at 15.6 µM [7] | viability at 31.3 µM [8] | viability at 62.5 µM [9] | viability at 125 µM [10] | viability at 250 µM [11] | viability at 500 µM | viability at 1000 µM | further results
Clc1ccc(Cn2cnc3ccccc32)c(Cl)c1 [Compound 6750659] | 42.5 µM | 42.4 µM |  |  |  | 100% | 89.8% | 5.8% | 9.3% | 0% |  |  | 
C=CCn1c(-c2ccc(N(C)C)cc2)nc2ccccc21 [Compound 6873298] | 37.7 µM | 37.7 µM |  |  |  |  |  |  |  |  |  |  | 
CCCn1c(COc2ccc(C)cc2)nc2ccccc21 [Compound 6944471] | > 500 µM | > 1000 µM |  |  |  | 98.6% | 100% | 100% | 100% | 100% | 85.8% | 91.4% | LC50 [1]: > 500 µM
Cc1ccc(CSCc2nc3ccccc3[nH]2)cc1 [Compound 7121781] | 444 µM | 444 µM |  |  |  | 95.9% | 80.9% | 99.7% | 98.6% | 96.2% | 34.8% | 15% | 
CCn1c(/C=C/c2ccc(F)cc2)nc2ccccc21 [Compound 7147614] | 96.4 µM | 96.4 µM |  |  |  |  |  |  |  |  |  |  | 
COc1ccccc1/C=C/c1nc2ccccc2[nH]1 [Compound 7148894] | 176 µM | 176 µM |  |  |  |  |  |  |  |  |  |  | 
Clc1ccc(OCCn2cnc3ccccc32)c(Cl)c1 [Compound 7221649] | 35 µM | 35 µM | 99.9% | 99.2% | 97.4% | 96.9% | 84.2% | 3.1% | 3.9% |  |  |  | 
Nc1nc2ccccc2n1Cc1ccc(Br)cc1 [Compound 7313068] | 62.7 µM | 62.7 µM |  |  |  |  |  |  |  |  |  |  | 
Cc1nc2ccccc2n1Cc1ccc(C(C)C)cc1 [Compound 7353551] | 116 µM | 116 µM |  |  |  |  |  |  |  |  |  |  | 
CCCOc1ccc(Cn2cnc3ccccc32)cc1 [Compound 7355741] | 71.9 µM | 72 µM |  |  |  | 99.8% | 100% | 82.7% | 5.7% | 0% |  |  | 
Cc1nc2ccccc2n1Cc1ccc(F)cc1 [Compound 7360886] | 239 µM | 239 µM |  |  |  |  |  |  |  |  |  |  | 
Cc1ccc(OCCn2cnc3ccccc32)c(C)c1 [Compound 7706808] | > 500 µM | > 1000 µM |  |  | 98.2% | 98.3% | 89.4% | 100% | 100% | 96.5% | 100% | 88.8% | viability at 1 µM [12]: 97.3%; viability at 2 µM [12]: 97.3%; LC50 [1]: > 500 µM
Cc1ccccc1OCCCCn1cnc2ccccc21 [Compound 7732524] | 64.9 µM | 64.9 µM |  |  |  | 100% | 99.5% | 54.4% | 4.4% | 5.1% | 2% | 1.8% | LC50 (144 h, read-out: C. elegans (Wild type) Development & Viability Assay LC50): 48.4 µM
Nc1nc2ccccc2n1CCCOc1ccccc1 [Compound 7915320] | 162 µM | 162 µM |  |  |  |  |  |  |  |  |  |  | 
Cc1ccccc1OCCCn1c(C)nc2ccccc21 [Compound 7916923] | 160 µM | 160 µM | 100% | 99.3% | 97.3% | 100% | 93.3% | 97.4% | 87.7% | 5.9% | 4.1% | 3.6% | 
Brc1ccccc1OCCCCn1cnc2ccccc21 [Compound 7924576] | 68.1 µM | 68.1 µM | 98.1% | 99.3% | 96% | 96.4% | 82% | 63.3% | 4.4% | 4.3% | 4.7% | 1.8% | 
FC(F)(F)c1cccc(OCCCCn2cnc3ccccc32)c1 [Compound 7925004] | 53.8 µM | 53.8 µM | 95.3% | 95% | 84.1% |  | 92.5% | 8.1% | 2% | 1.4% | 2% | 0.428% | viability at 15.6 µM [12]: 90.3%

Read-outs that look alike come from different tables or passages of the source.
